About 220 (0.56%) of roughly 39,000 compounds showed activity. Some of the results follow.
test system: Escherichia coli K-12 BW25113; test: relative growth (OD600 normalised to plate interquartile mean) (fraction); higher = less growth inhibition, active = 0.2 or less; settings: 50 µM; LB; incubation time: overnight (16-24 h)
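Also: static incubation at 37 °C against the wild-type strain, values averaged over two biological replicates.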

| Compound | relative growth |
| --- | --- |
| Oc1ccc(C2(c3ccccc3F)CCC(F)(F)CC2)cc1 | inactive: 0.909 |
| NCc1nnnn1C1CCCCC1 | inactive: 0.982 |
| CC(C)NC(=O)Nc1ccc2c(c1)CC(=O)N([C@H](C)CO)C[C@H](C)[C@H](CN(C)Cc1ccc(Oc3ccccc3)cc1)O2 | inactive: 1.02 |
| CN1C(C(=O)Nc2ccccn2)=C(O)c2sccc2S1(=O)=O | inactive: 1.03 |
| C[C@H](CO)N1C[C@H](C)[C@@H](CN(C)C(=O)Cc2ccncc2)Oc2ncc(C#CC3(O)CCCC3)cc2C1=O | inactive: 1.02 |
| C(=N\n1cnnc1)/c1ccccn1 | inactive: 1.02 |
| COc1ccc(CN(C)C[C@H]2Oc3ccc(NS(=O)(=O)c4c(C)noc4C)cc3C(=O)N([C@H](C)CO)C[C@@H]2C)cc1 | inactive: 1 |
| C[C@@H]1CN([C@@H](C)CO)C(=O)c2cc(NC(=O)Nc3ccc(C(F)(F)F)cc3)ccc2O[C@@H](C)CCCCO[C@@H]1CN(C)C(=O)NC1CCCCC1 | inactive: 1.06 |
| O=C(C[C@@H]1CC[C@@H]2[C@H](COC[C@H](O)CN2S(=O)(=O)c2ccccc2F)O1)N1CCC(Cc2ccccc2)CC1 | inactive: 1.01 |
| Cc1ccc(S(=O)(=O)Nc2cccc3c2O[C@@H](CN(C)C(=O)Nc2cccc4ccccc24)[C@@H](C)CN([C@H](C)CO)C3=O)cc1 | inactive: 0.978 |
| O=C(C[C@H]1CC=CCCC(=O)OCCNC1=O)NCCO | inactive: 0.998 |
| CC(C)C(C)C=CC(C)C1CCC2C3=CC=C4CC(O)CCC4(C)C3CCC21C (stereo not given) | inactive: 0.974 |
| COc1cc(OC)c2c(OC)c(-c3ccc4c(c3)OCO4)c(=O)oc2c1 | inactive: 0.941 |
| COc1cccc(S(=O)(=O)N(C)C[C@H]2Oc3ncc(-c4cccc(C(=O)N(C)C)c4)cc3C(=O)N([C@@H](C)CO)C[C@@H]2C)c1 | inactive: 0.999 |
| C[C@H](CO)N1C[C@H](C)[C@@H](CN(C)CC2CC2)OCCCC[C@H](C)Oc2ccc(NC(=O)Nc3ccc(C(F)(F)F)cc3)cc2C1=O | inactive: 1.01 |
| C[C@@H]1CN([C@H](C)CO)C(=O)c2cc(/C=C/c3ccccc3)cnc2O[C@@H]1CN(C)C(=O)Nc1ccc(C(F)(F)F)cc1 | inactive: 0.973 |
| CCNC(=S)N1CCC[C@H](C(N)=O)C1 | inactive: 0.951 |
| COc1ccc(C2C(=O)c3ccccc3C2=O)cc1 | inactive: 0.958 |
| CNC(=O)CN1C(=O)[C@@H]2[C@@H](C1=O)[C@@H]1C=C[C@@H]2C1 | inactive: 0.983 |
| CCOC(=O)c1cn(C[C@H](Cc2ccccc2)NC(=O)N[C@H](CO)CCc2oc(C(C)=O)c(C(=O)OC)c2C(=O)OC)nn1 | inactive: 1.04 |

From the supplement of paper PMC9446081
